Assay results: the supplement of paper PMC12217912
This is one part of the list. Sequences were assembled here from the parent chain. Values near 0.05 are background.

B1: TEV protease; numbered along this chain (parent)
chain: MGESLFKGPRDYNPISSSICHLTNESDGHTTSLYGIGFGPFIITNKHLFRRNNGTLVVQSLHGVFKVKDTTTLQQHLVDGRDMIIIRMPKDFPPFPQKLKFREPQREERICLVTTNFQTKSMSSMVSDTSCTFPSGDGIFWKHWIQTKDGQCGSPLVSTRDGFIVGIHSASNFTNTNNYFTSVPKNFMELLTNQEAQQWVSGWRLNADSVLWGGHKVFMVKPEEPFQPVKEATQL

Variants of: B1
Test: raw area under fraction-flipped curve 0-4 h after induction (AUC4h, not background-subtracted), DNA-recorder readout of cleavage of the substrate (dimensionless); higher = more cleavage of the substrate by the protease variant
Settings: temperature: 34 °C; time window: 0-4 h after rhamnose induction
Procedure: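 In vivo DNA recorder in E. coli TOP10(DE3) ΔrhaA at 34 °C. Each TEVp single-site mutant (parent TEVp 0) is paired with a single-site variant of the 7-mer TEVs (canonical ENLYFQ|S). The substrate sits between flexible linkers in a Bxb1-sfGFP-TEVs-SsrA fusion, so cleavage stabilises Bxb1 and speeds flipping of a recombination array, read by NGS. The value is the raw area under the fraction-flipped curve over 0-4 h after rhamnose induction (AUC4h), with ≥20 reads per time point. It is not background-subtracted; inactive controls average about 0.047.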
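Note: Bxb1 expression induced with 0.2% (w/v) L-rhamnose at OD600 near 0.5, cultures sampled hourly, flipped fraction per protease–substrate barcode pair counted by paired-end Illumina sequencing.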

Variant	area with substrate EALYFQS	area with substrate ECLYFQS	area with substrate EELYFQS	area with substrate EFLYFQS	area with substrate EPLYFQS	area with substrate ERLYFQS	area with substrate ESLYFQS	area with substrate ETLYFQS	area with substrate EWLYFQS	area with substrate EYLYFQS	area with substrate EHLYFQS	area with substrate EILYFQS	area with substrate EKLYFQS	area with substrate ELLYFQS	area with substrate EMLYFQS	area with substrate EQLYFQS	area with substrate EVLYFQS	area with substrate EDLYFQS	area with substrate EGLYFQS
S26G	0.134	0.118	0.118	0.0902	0.0959	0.0922	0.0912	0.104	0.0879	0.0673									
S26T	0.095	0.0988		0.094	0.0795		0.1	0.0951			0.0817	0.0888	0.0974	0.0674	0.101	0.125	0.0889		
S60E	0.0657	0.0527	0.0588				0.0605	0.0598	0.0384	0.0494		0.0561	0.0577	0.0555		0.0398	0.059	0.0624	
S60Y	0.102	0.114				0.119	0.117			0.0978		0.101	0.097	0.0814		0.12	0.0874		
K46Y	0.0619				0.0617		0.0625	0.0469	0.054		0.0706	0.0557	0.0916	0.0326	0.042	0.0604	0.0589		
K46L	0.0925	0.0826	0.102	0.0954	0.12	0.0497	0.0737	0.0852			0.0957	0.085	0.0778	0.0787	0.0708	0.11	0.0557		0.0669
K46Q	0.095	0.102				0.0084	0.0797	0.0674	0.104	0.0452		0.0973	0.0904	0.0455	0.109		0.0951	0.153	0.0591
G54T	0.102	0.0745	0.0804		0.0857		0.0775	0.0735	0.0875		0.0718	0.0682	0.0873	0.0852		0.0783	0.0793		0.063
G54N	0.0643	0.057	0.0718	0.0743	0.0693	0.06	0.0734	0.0694	0.0089	0.068		0.0485	0.067		0.0649	0.064		0.0786	0.0621
L22R	0.0382				0.0552	0.0571	0.0446		0.042	0.103	0.0625	0.0441	0.0525	0.0664			0.0396	0.039	0.0458
L22T	0.0634	0.0563	0.059		0.088	0.0551	0.0499			0.0331	0.0451	0.0487		0.0498		0.0596	0.0516	0.0531	0.0535
F38L	0.0945	0.0872	0.101		0.103	0.0871	0.0848	0.0784		0.0907	0.0863	0.0762	0.102	0.0679	0.105	0.113	0.0679	0.0877	0.0734
F38A	0.0889	0.0943					0.053	0.0875			0.0792	0.0783	0.0858	0.0573	0.0851	0.0873	0.0528	0.0806	
